{"source": "PubChem BioAssay (NCATS)", "note": "Where “and” joins values, the source holds several entries; their conditions need not be identical. Identical values can stand only once. The shares of active, inactive and inconclusive entries below differ from those in the screen. Potencies of inconclusive entries are doubtful fits and often do not repeat. More than one record can exist for a structure, and the calls need not agree. Calls of active or inactive are those of the source. The call rests on the fitted dose curve; in most records, active means well fitted activation curve with a large enough effect; inconclusive means small, poorly fitted or top-dose-only effect; inactive means no such curve, though single readings can be large or run the other way. Potency means the concentration at half of the fitted maximal effect; tags describe the fitted curve by direction and shape.", "data": [{"target": "Cellular tumor antigen p53 (Homo sapiens) (UniProt P04637)", "sequence (P04637 whole entry, looked up)": "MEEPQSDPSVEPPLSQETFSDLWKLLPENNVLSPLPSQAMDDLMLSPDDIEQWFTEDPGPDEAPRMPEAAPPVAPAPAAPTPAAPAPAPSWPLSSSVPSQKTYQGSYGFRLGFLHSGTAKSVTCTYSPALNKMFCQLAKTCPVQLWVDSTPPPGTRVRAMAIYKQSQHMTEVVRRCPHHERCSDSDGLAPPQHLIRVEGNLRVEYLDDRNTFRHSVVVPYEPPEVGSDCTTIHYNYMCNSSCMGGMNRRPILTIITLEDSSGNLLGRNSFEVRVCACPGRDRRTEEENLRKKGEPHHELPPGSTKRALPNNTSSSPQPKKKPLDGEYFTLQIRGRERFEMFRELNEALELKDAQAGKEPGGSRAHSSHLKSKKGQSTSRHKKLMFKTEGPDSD", "test": "Primary qHTS for small molecule compounds that upregulate eGFP-tagged delta133p53alpha (in N-terminal) cells. (AID 2060322);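 further: cells pre-induced with doxycycline then dosed without doxycycline; nearly all actives have a fitted effect of over 75% in size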;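 on activation: series mostly up to about 56 µM; 0% = DMSO vehicle and 100% = reference activator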", "details": "NCI-H358 eGFP-delta133p53alpha fluorescence, 24 h; activation: hits give high values", "how_it_was_run": "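NCI-H358 cells pre-induced 24 h with 10 ng/ml doxycycline for eGFP-delta133p53alpha, plated dox-free and exposed 24 h at 37C to titrated compounds. Fixed, Hoechst-stained; gated GFP peak intensity by laser scanning cytometry, normalized to DMSO (0%) and 57.5 uM 5-azacytidine (100%).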", "values": [{"molecule": "C[C@@H](N)c1ccc(C(=O)Nc2ccnc3[nH]ccc23)cc1", "Potency": "inconclusive: 23.9 µM [activator, single point]", "activation": "inactive: 21.5%"}, {"molecule": "Cc1ccc(C)c(-c2cc(C(F)(F)F)nn2-c2ccc(S(N)(=O)=O)cc2)c1", "Potency": "inconclusive: 26.9 µM [activator, single point]"}, {"molecule": "Nc1nc(NCCNc2ncc(-n3ccnc3)c(-c3ccc(Cl)cc3Cl)n2)ccc1[N+](=O)[O-]", "Potency": "active: 8.49 µM", "activation": "inactive: -14%"}, {"molecule": "Cn1cc[nH]c1=S", "activation": "inactive: -1.69%"}, {"molecule": "CCc1cccc(N(C)C(N)=Nc2cccc3ccccc23)c1", "Potency": "inconclusive: 3.38 µM [activator, partial curve, poor fit]", "activation": "inactive: 19.2%"}, {"molecule": "CCc1nc(C(N)=O)c(Nc2ccc(N3CCC(N4CCN(C)CC4)CC3)c(OC)c2)nc1NC1CCOCC1", "activation": "inactive: -44.7%", "Potency": "inconclusive: 3.3 µM [activator, full curve, poor fit]"}, {"molecule": "C[C@@H]1C[C@H]2[C@@H]3CCC4=CC(=O)C=C[C@]4(C)[C@@]3(Cl)[C@@H](O)C[C@]2(C)[C@@]1(OC(=O)c1ccco1)C(=O)CCl", "Potency": "inconclusive: 19.5 µM [activator, single point]", "activation": "inactive: 19.9%"}, {"molecule": "NC1(C(=O)N[C@@H](CCO)c2ccc(Cl)cc2)CCN(c2ncnc3[nH]ccc23)CC1", "Potency": "inconclusive: 37.9 µM [activator, partial curve, poor fit]", "activation": "inactive: 7.49%"}, {"molecule": "CC(C)C[C@H](NC(=O)[C@@H](O)[C@H](N)Cc1ccccc1)C(=O)O", "Potency": "inconclusive: 43.2 µM [activator, single point]", "activation": "inactive: -10.8%"}, {"molecule": "CN[C@H]1CC[C@@H](c2ccc(Cl)c(Cl)c2)c2ccccc21", "Potency": "inconclusive: 38.9 µM [activator, single point] and inconclusive: 33.8 µM [activator, single point]"}, {"molecule": "NC(=O)Cc1cccc(C(=O)c2ccccc2)c1N", "Potency": "inconclusive: 0.0385 µM [activator, full curve, poor fit]", "activation": "inactive: 9.6%"}, {"molecule": "CCC[C@@H]1C[C@@H](C(=O)N[C@@H]([C@H]2O[C@H](SC)[C@H](O)[C@@H](O)[C@H]2O)[C@@H](C)O)N(C)C1", "activation": "inactive: -5.08%", "Potency": "inconclusive: 1.23 µM [activator, full curve, poor fit]"}, {"molecule": "O=c1[nH]ccc2cc(OC3CCNCC3)ccc12", "activation": "inactive: -7.14%"}, {"molecule": "CCN(CC)CCOc1ccc(Nc2ncc3cc(-c4c(Cl)cccc4Cl)c(=O)n(C)c3n2)cc1", "Potency": "active: 5.44 µM", "activation": "inactive: -1.41%"}, {"molecule": "COc1ccccc1Oc1c(NS(=O)(=O)c2ccc(C(C)(C)C)cc2)nc(-c2ncccn2)nc1OCCO", "Potency": "inconclusive: 38.9 µM [activator, single point]"}, {"molecule": "CCN(CC)CCN(Cc1ccc(-c2ccc(C(F)(F)F)cc2)cc1)C(=O)Cn1c(SCc2ccc(F)cc2)nc(=O)c2c1CCC2", "Potency": "inconclusive: 33.8 µM [activator, single point]"}, {"molecule": "CN(NC(=O)CC(=O)NN(C)C(=S)c1ccccc1)C(=S)c1ccccc1", "Potency": "active: 0.861 µM", "activation": "inconclusive: -15.7% [activator]"}, {"molecule": "CC(=O)O[C@H]1C(=O)[C@@]2(C)C([C@H](OC(=O)c3ccccc3)[C@]3(O)C[C@H](OC(=O)[C@H](O)[C@@H](NC(=O)c4ccccc4)c4ccccc4)C(C)=C1C3(C)C)[C@]1(OC(C)=O)CO[C@@H]1C[C@@H]2O", "note": "(some centres not stated)", "activation": "inconclusive: 66.2% [activator]", "Potency": "inconclusive: 0.0074 µM [activator, full curve, poor fit]"}, {"molecule": "CCN1CCN(c2cc(-c3ccc(F)cc3)c3c(n2)CCCCCC3)CC1", "Potency": "inconclusive: 5.36 µM [activator, partial curve, poor fit]"}, {"molecule": "Nc1ccc(-c2ccc3ncc4ccc(=O)n(-c5cccc(C(F)(F)F)c5)c4c3c2)cn1", "Potency": "inconclusive: 8.49 µM [activator, full curve, poor fit]", "activation": "inactive: 6.6%"}, {"molecule": "CN(C)C(=O)C(CCN1CCC(O)(c2ccc(Cl)cc2)CC1)(c1ccccc1)c1ccccc1", "Potency": "inconclusive: 21.9 µM [activator, single point]", "activation": "inactive: 62.2% and inactive: -46.1%"}, {"molecule": "CC(C)NCC(O)c1ccc(NS(C)(=O)=O)cc1", "note": "(configuration not stated)", "Potency": "inconclusive: 0.769 µM [activator, partial curve, poor fit]", "activation": "inactive: -72.6%"}]}]}
